# Reference: ChEMBL document CHEMBL4888484, “Replenishing the malaria drug discovery pipeline: Screening and hit evaluation of the MMV Hit Generation Library 1 (HGL1) against asexual blood stage Plasmodium falciparum ,using a nano luciferase reporter read-out” (2022)
# About 540 (0.36%) of roughly 150,000 compounds showed an effect of 50% or more. This is one part of the list.
# Tested on: Plasmodium falciparum
# Experiment: Primary screen in NF54 nanoGlo assay, in single point, at 2uM, 72h; a lower Z score goes with more inhibition
# Assay type: functional, Erythrocyte
# Conditions: timepoint 72 hour
SMILES,% Inhibition [%],Z score
O=C1CNCCN1Cc1ccc(Cl)cc1,1,-0.15
COC(=O)c1nc(NC(=O)[C@H]2CC(=O)OC2(C)C)sc1C,-13,1.95
C#CCN(C)[C@@H](CO)c1ccc(OC)cc1,-5,0.73
COC(=O)C(C)(C)CNC(=O)N1CCC[C@H](C)C1,-10,1.48
COc1ccc(OC)c(CNc2nc(-c3ccccc3)no2)c1,-25,2.18
Cc1csc([C@@H](NS(=O)(=O)c2ccccc2Cl)C2CC2)n1,6,-1.09
COCCC1(CNc2ccc(N3CCCS3(=O)=O)cn2)CC1,-6,0.86
CCc1csc(NC2CCS(=O)(=O)CC2)n1,-6,1.2
CCc1nnc(NC(=O)CN(CCOC)C(=O)OC(C)(C)C)s1,-7,1.21
CCN1CC[C@H](NC(=O)N(Cc2ccc(OC)cc2OC)C2CCCC2)C1,-2,0.31
Cn1nccc1-c1cccc(-c2noc(-c3ccccn3)n2)c1,-10,1.79
COCCCNC(=O)C1CN(S(=O)(=O)C2CC2)C1,-10,1.53
COc1ccc(C(c2c(C)nn(C)c2Nc2ccccc2)c2c(C)nn(C)c2Nc2ccccc2)cc1,19,-2.93
Cc1ccc(Br)c2[nH]c(C(=O)N[C@@H]3C[C@H]4CC[C@@H]3O4)cc12,2,-0.32
Cc1c(Cl)cccc1NC(=O)N1CCN(c2ccc(-c3noc(C(C)C)n3)cc2)CC1,-4,0.87
Clc1ccc([C@@H]2CN(c3nccc4[nH]cnc34)CCO2)cc1,-8,1.34
Cc1cnn([C@H]2CCCN(Cc3cc4ccccc4[nH]c3=O)C2)c1,-6,0.74
NS(=O)(=O)c1ccc(C(=O)NC[C@H]2CCCOC2)cc1Cl,-8,0.87
O=C(CNC(=O)N1C[C@H]2CCCC[C@H]2C1)N1CCN(c2ccccc2)CC1,-15,1.5
CCc1nc(CNC(=O)Cc2sc(N)nc2C)cs1,-12,1.56
CCN1C(=O)C2C3CC4C(OC1(C(C)C)C42)C3O (stereo unspecified),3,-0.46
CC(C)[C@@H]1CN(c2nnc(-c3ccc(F)cc3Br)n2C)CCO1,-10,1.76

SMILES,% Inhibition [%],Z score
Cc1cc(C(=O)CN(Cc2cccc(Cl)c2)C(C)C)c(C)n1[C@H]1CCS(=O)(=O)C1,0,-0.07
CCCc1nc(N2CCN(C(=O)[C@H](CC)c3ccccc3)CC2)c2c(C)nn(-c3ccc(F)cc3)c2n1,-3,0.49
COCC1(CNc2ncc(S(=O)(=O)NCCO)cc2C(F)(F)F)CCC1,-8,1.07
CN(CC#N)Cc1cc(Br)ccc1Cl,-15,1.99
COC[C@H]1CCCN(C(=O)Nc2cnn(CC(F)(F)F)c2)C1,7,-1.04
Fc1ccc(OC(F)F)cc1-c1noc([C@@H]2COCCN2C2CCCC2)n1,-10,1.28
CCOc1ccc(Cc2noc3c2C(=O)C[C@@H](c2ccccc2)C3)cc1OCC,-6,0.83
CC(C)Cc1n[nH]c(NC(=O)CCCc2nnc3ccccn23)n1,28,-3.14
CCS(=O)(=O)c1ccc2oc(-c3cc(C)ccc3OS(=O)(=O)c3ccc(C)cc3)nc2c1,-8,1.57
Cc1nc(C)c(C(=O)N(Cc2ccncc2)C2CC2)o1,-3,0.41
CCc1nccn1CC(=O)N1CCC[C@@]2(CCC(=O)N(CC3CC3)C2)C1,2,-0.34
N#Cc1ccc(Cl)cc1NC(=O)C(=O)N1CCN(c2ccccc2F)CC1,10,-1.64
COc1cc(CC2(CCC(=O)N3CCCC(C)C3)CCC(=O)N2)ccc1F (stereo unspecified),-1,0.23
CCCC(C)C1CCCN1c1cc(-n2cccn2)nc(N)n1 (stereo unspecified),1,-0.2
CCOc1ccc2nc(N3CCCCCC3)sc2c1,-10,1.3
O=S(=O)(c1cccc2nsnc12)N1C[C@H](O)[C@@H](F)C1,5,-0.89
CC(C)N1CCN(C(=O)c2cc3[nH]cnc3cc2F)CC1,-8,1.11
CC(C)(C)NC(=O)N1CCNC(=O)C1(C)C,-8,1.11
COc1ccc(F)c(CN2CCC[C@@](CO)(CC3CC3)C2)c1,-6,1.08
O=C(N[C@H]1C[C@H]2C(=O)N3CCC[C@@H]3C(=O)N2C1)c1ccc(C(F)(F)F)cc1,-21,2.49
CN(C)C(=O)c1ccc(=O)n(Cc2cc(F)ccc2OC(F)F)c1,4,-0.77
